Data from PubChem BioAssay AID588453 (National Center for Advancing Translational Sciences (NCATS), 2011).
The campaign covered roughly 390,000 compounds. About 4,000 (1%) were called active. This list was built around the results that the source calls inconclusive (neither active nor inactive); the mix of calls is not that of the screen. Calls come from the whole dose curve; as a rule, active = well fitted inhibition curve with a large enough effect; inconclusive = small, poorly fitted or top-dose-only effect; inactive = no such curve, though single readings can be large or run the other way. Where the call is inconclusive, the potency comes from a doubtful curve fit.

Each compound was assayed against Thioredoxin reductase 1, cytoplasmic (Rattus norvegicus) (UniProt O89049) (assay: qHTS Assay for Inhibitors of Mammalian Selenoprotein Thioredoxin Reductase 1 (TrxR1): qHTS). Conditions: recombinant rTrxR1, NADPH fluorescence consumption, selenite substrate; series mostly up to 114 µM; activity change, negative = inhibition: at the top concentration.
Chain of UniProt O89049 (O89049 whole entry, looked up): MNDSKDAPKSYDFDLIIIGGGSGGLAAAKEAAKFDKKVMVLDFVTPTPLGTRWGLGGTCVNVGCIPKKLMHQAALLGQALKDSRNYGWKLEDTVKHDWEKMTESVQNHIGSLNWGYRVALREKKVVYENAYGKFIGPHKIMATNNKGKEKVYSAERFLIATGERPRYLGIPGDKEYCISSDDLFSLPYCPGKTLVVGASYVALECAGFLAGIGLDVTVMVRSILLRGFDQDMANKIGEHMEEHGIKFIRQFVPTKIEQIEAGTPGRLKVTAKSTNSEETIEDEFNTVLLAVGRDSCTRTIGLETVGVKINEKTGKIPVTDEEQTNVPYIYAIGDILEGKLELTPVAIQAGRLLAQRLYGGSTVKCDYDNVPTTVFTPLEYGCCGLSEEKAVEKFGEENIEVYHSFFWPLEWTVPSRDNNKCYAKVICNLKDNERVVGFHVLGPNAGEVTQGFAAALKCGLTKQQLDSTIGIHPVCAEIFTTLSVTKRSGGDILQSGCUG
Outline: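 Rat TrxR1 (90 nM in the dispensed reagent) was pre-reduced with 400 uM NADPH for 5 min at room temperature, then incubated with compound for 15 min. After 400 uM selenite was added, NADPH fluorescence (Ex 340/Em 450 nm) was followed for 8 min.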
% is set by controls: 0 for no effect and ±100 for the full control effect; potency is the fitted concentration of half-maximal effect; tags give direction and shape of the fitted curve.
Note: nearly all actives have a fitted effect of over 65% in size.

| SMILES | Potency | activity change, negative = inhibition |
| --- | --- | --- |
| Cc1nn(C)c(C)c1NC(=S)Nc1ccc(S(=O)(=O)Nc2ncccn2)cc1 | inconclusive: 39.8 µM [inhibitor, partial curve] | – |
| COc1ccc(S(=O)(=O)CCC(=O)N2CCN(c3ccc([N+](=O)[O-])cc3)CC2)cc1 | – | inactive: 2.2% |
| Cc1ccc(/C=C2/NC(=O)N(c3ccccc3)C2=O)o1 | active: 50.1 µM | – |
| Nc1nc(N)c2ncc(C(=O)CCc3ccccc3)nc2n1 | inconclusive: 28.2 µM [inhibitor, partial curve, poor fit] | – |
| CCc1nnc(NC(=O)c2cc(Cl)ccn2)s1 | inconclusive: 56.2 µM [inhibitor, partial curve, poor fit] | – |
| O=C1C(=O)c2ccc(-c3ccccc3)cc2-c2ccccc21 | inconclusive: 56.2 µM [inhibitor, partial curve] | – |
| CC(=O)N1CCC2(CC1)C/C(=N\NC(=S)Nc1ccccc1F)c1cc(O)ccc1O2 | – | inactive: -7.97% |
| CC(C)(C)C1CCC2(CC1)NC(=S)N(c1ccccc1)N2 (centres undefined) | – | inactive: -1.87% |
| CCOC(=O)C1Nc2ccc(C(F)(F)F)cc2C2C=CCC12 (centres undefined) | inconclusive: 25.1 µM [inhibitor, single point] | – |
| C=C(CN(C)C)C(=O)c1ccc(C)cc1C | active: 2 µM | – |
| Cc1c(N2C(=O)/C(=C/C3CC=CCC3)SC2=S)c(=O)n(-c2ccccc2)n1C (centres undefined) | inconclusive: 20 µM [inhibitor, single point] | – |
| CC(=O)C1=C(O)C(=O)N(C2CCCCC2)C1c1ccccc1 (centres undefined) | inconclusive: 15.8 µM [inhibitor, single point] | – |
| N#CC(c1ccc(Cl)nn1)c1ccc(Cl)cc1Cl (centres undefined) | inconclusive: 56.2 µM [inhibitor, partial curve, poor fit] | – |
| CCOC(=O)c1cc(-c2ccncc2)nc2c1c(C)nn2-c1ccccn1 | – | inactive: -2.15% [at 57.1 µM] |
| Cc1ccccc1-c1cc2nc(C)c(C)c(=O)n2[nH]1 | – | inactive: 12.4% [at 57.1 µM] |
| O=C(/C=C/c1ccccc1)Nc1ccc(Br)cn1 | – | inactive: 29.5% |
| Cc1ccc(Oc2c(C(N)=O)cc([N+](=O)[O-])cc2[N+](=O)[O-])cc1 | inconclusive: 4.47 µM [inhibitor, partial curve] | – |
| Cc1cc(C(=O)NCc2ccccc2)c(=O)[nH]c1C | inconclusive: 79.4 µM [inhibitor, single point] | – |
| O=C(CSc1ncccc1-c1nc2ccccc2[nH]1)NCc1ccco1 | inconclusive: 25.1 µM [inhibitor, partial curve] | – |
| Cn1c2ccccc2c2nnc(SCC(=O)Nc3cccc(C(=O)O)c3)nc21 | – | inactive: 13.2% |
| Cn1c(CSc2nc3ccc(Br)cc3[nH]2)nc2ccccc21 | – | inactive: 8.43% |
| Oc1ccc(C2C[C@H]3CC[C@@H]2C3)cc1O (some centres undefined) | inconclusive: 17.8 µM [inhibitor, partial curve, poor fit] | – |
| CN(C)c1ccc(Cc2cc3c(O)ccc(O)c3cc(Cc3ccc(N(C)C)cc3)c2=O)cc1 | active: 11.2 µM | – |

| SMILES | Potency | activity change, negative = inhibition |
| --- | --- | --- |
| COc1ccc(CC(=O)N/N=C/c2ccc(-c3cccc(C(=O)O)c3)o2)cc1OC | – | inactive: -19.2% |
| O=C(CSc1ccsc1[N+](=O)[O-])N1CCN(c2ccccc2)CC1 | inconclusive: 56.2 µM [inhibitor, single point] | – |
| O=C(O)COc1ccccc1/C=N/NC(=O)c1cc(-c2ccc(Cl)cc2)nc2ccccc12 | – | inactive: -8.58% |
| CC(=O)N1CCc2cc(C(=O)CN3CCN(c4cccc(Cl)c4)CC3)ccc21 | inconclusive: 17.8 µM [inhibitor, partial curve] | – |
| CS(=O)(=O)c1nc(-c2ccccc2)cc(C(F)(F)F)n1 | active: 17.8 µM | – |
| Cc1ccc(C(=O)NCc2ccco2)cc1S(=O)(=O)Nc1cccc(Cl)c1 | inconclusive: 22.4 µM [inhibitor, full curve] | – |
| O=C(O)c1ccccc1Nc1cc(Cl)c2nonc2c1[N+](=O)[O-] | active: 1.58 µM | – |
| Cc1ccc(C(C)CCN2CCC(n3nccc3NC(=O)c3ccccc3)CC2)o1 (centres undefined) | inconclusive: 70.8 µM [inhibitor, partial curve, poor fit] | – |
| C=CCNC(=O)/C(C#N)=C\c1cc(Cl)c(OCC)c(OC)c1 | inconclusive: 89.1 µM [inhibitor, single point] | – |
| COc1cc(CNCCCN2CCOCC2)ccc1OCC(=O)Nc1cccc(C(F)(F)F)c1 | inconclusive: 39.8 µM [inhibitor, single point] | – |
| CN1OC[C@@H]2CN[C@H](c3cccc(-c4ccc(C#N)cc4)c3)C[C@@H]21 | inconclusive: 56.2 µM [inhibitor, partial curve, poor fit] | – |
| O=[N+]([O-])c1ccc(N2CCOCC2)c(S(=O)(=O)N2CCOCC2)c1 | inconclusive: 79.4 µM [inhibitor, partial curve, poor fit] | – |
| CC(C)c1ccc(C(=O)NC(=S)Nc2ccc3[nH]c(=O)[nH]c3c2)cc1 | inconclusive: 3.55 µM [inhibitor, partial curve, poor fit] | – |
| CCc1cc(C(=O)N2CCN(S(=O)(=O)c3ccccc3F)CC2)sc1C | – | inactive: 22% |
| O=C(NC(=S)Nc1ccccn1)c1cccc([N+](=O)[O-])c1 | – | inactive: -8.34% |
| C#CCOCCOCCOCCNc1nc(N2CCN(C(=O)C(Cc3cc4ccccc4[nH]3)n3cc(C(N)Cc4ccc(O)cc4)nn3)CC2)nc(N2CCN(C(=O)C(CCC(=O)O)n3cc(C(N)C(C)CC)nn3)CC2)n1 (centres undefined) | inconclusive: 89.1 µM [inhibitor, single point] | – |
| COc1ccc(N2C(=O)CC(Sc3ncn[nH]3)C2=O)c(OC)c1 (centres undefined) | active: 0.501 µM | – |
| CCCCC1=CC2=C(c3ccco3)C(=O)C(C)(OC(=O)c3ccc(OC)cc3)C(=O)C2=CN1C(CO)CO (centres undefined) | inconclusive: 79.4 µM [inhibitor, partial curve, poor fit] | – |
| O=C(c1ccccc1)c1nc2ccccc2n(CCCn2c(=O)c(C(=O)c3ccccc3)nc3ccccc32)c1=O | – | inactive: 1.49% |
| CCOC(=O)N1CCN(C(=O)c2oc3ccc(S(=O)(=O)N4CC(C)CC(C)C4)cc3c2C)CC1 (centres undefined) | – | inactive: -6.27% |
| COc1cccc(C2=NC(C)(C)NC(c3ccccc3O)C2)c1 (centres undefined) | inconclusive: 79.4 µM [inhibitor, single point] | – |
| S=C(Nc1ccc(Cl)cc1)Nc1ccc2c(c1)OCCO2 | – | inactive: -27.5% |
| C=CCOc1ccc(CN(C)C(=O)c2ccc(CNS(=O)(=O)c3ccc(C)c(C)c3)cc2)cc1 | – | inactive: 18.6% |

| SMILES | Potency | activity change, negative = inhibition |
| --- | --- | --- |
| CCCn1c(=O)n(C)c(=O)c2c(SCC(=O)NCc3ccco3)nc(C3CC3)nc21 | inconclusive: 1 µM [inhibitor, full curve, poor fit] | – |
| O=S(=O)(c1ccccc1)n1ccc(-c2cnc(-c3ccccc3)s2)n1 | – | inactive: -5.63% |
| CCOCCCN(Cc1ccco1)C(=O)c1cc2c(=O)[nH]c3ccc(C)cc3c2s1 | inconclusive: 15.8 µM [inhibitor, partial curve, poor fit] | – |
| Cc1ccc(CN2CCNC(=O)C2CC(=O)O)o1 (centres undefined) | inconclusive: 44.7 µM [inhibitor, partial curve, poor fit] | – |
| COc1ccc2c(c1)-c1ccccc1S(=O)(=O)N2C(C)=O | inconclusive: 10 µM [inhibitor, partial curve] | – |
| COc1ccc(NC(=O)C#Cc2ccccc2)cc1OC | – | inactive: -8.09% |
| CNC(=S)N/N=C/c1cn(CCOc2cccc(OC)c2)c2ccccc12 | – | inactive: 11.5% [at 57.1 µM] |
| C#CCOCCOCCOCCNc1nc(N2CCN(C(=O)CCCCCCCCCCNC(=O)[C@H](CCCCN)n3cc(CCCC(=O)O)nn3)CC2)nc(N2CCN(C(=O)CCCCCCCCCCNC(=O)[C@H](CCCCN)n3cc(CCCC(=O)O)nn3)CC2)n1 | inconclusive: 31.6 µM [inhibitor, partial curve, poor fit] | – |
| C=CSc1sc(Cl)c(N2CCOCC2)c1[N+](=O)[O-] | – | inactive: -9.4% [at 57.1 µM] |
| COc1ccc(N2C(=O)CCC(C(=O)N3CCN(c4ccccn4)CC3)C2c2ccc(F)cc2)cc1 (centres undefined) | inconclusive: 89.1 µM [inhibitor, single point] | – |
| COc1ccccc1NC(=O)COn1nnc2ccc(S(=O)(=O)N3CCOCC3)cc21 | – | inactive: 9.17% [at 57.1 µM] |
| CCOC(=O)c1ccc(NC(=O)CSCc2ccco2)cc1 | inconclusive: 63.1 µM [inhibitor, partial curve, poor fit] | – |
| CC(C)NC(=O)CCCC(=O)NC(C)C | – | inactive: -4.42% |
| FC(F)Oc1ccc(NC(=S)NC2CCSc3ccccc32)cc1 (centres undefined) | inconclusive: 79.4 µM [inhibitor, single point] | – |
| COc1cccc(C(=O)NNC2=CC(=O)CC(C)(C)C2)c1 | inconclusive: 3.98 µM [inhibitor, full curve] | – |
| Cc1ccc(C(=O)N2CCC3(CC2)Oc2ccc(F)cc2C(=O)C32CC(c3cccnc3)=NO2)s1 (centres undefined) | – | inactive: 0.739% |
| O=C(O)c1ccc(N2Cc3ccccc3C2)cc1O | inconclusive: 25.1 µM [inhibitor, full curve] | – |
| COc1ccc(CCNC(=O)c2sc3nc4n(c(=O)c3c2C)CCCC4)cc1OC | inconclusive: 70.8 µM [inhibitor, partial curve] | – |
| CC(C)n1c(=N)c(C(=O)NCc2cccnc2)cc2c(=O)n3ccccc3nc21 | inconclusive: 89.1 µM [inhibitor, partial curve, poor fit] | – |
| CC(=O)C(=Nc1ccccc1Cl)NNc1ccc(Cl)cc1 | inconclusive: 50.1 µM [inhibitor, partial curve] | – |
| CCOC(=O)CNC(=O)CSc1nnc(-c2ccccc2)n1Cc1ccco1 | – | inactive: -2.63% [at 57.1 µM] |
| CC1CCCC(C)N1C(=O)CSc1nnc(-c2ccco2)n1C (centres undefined) | inconclusive: 31.6 µM [inhibitor, partial curve, poor fit] | – |
| O=C1N(Cc2cccc(Cl)c2)C[C@@H]2C[C@@H](c3ccccn3)N3CCC[C@@]123 | inconclusive: 10 µM [inhibitor, partial curve, poor fit] | – |
